Paper PMC7694937
Results are given in words; binding and its absence hold for the method and conditions named. In cells and extracts the contact can be indirect. Some entries that bind do so weakly or less than the wild type. For some assays here: Where a sequence is shown, tags or fusion partners need not be part of it.

Protein sequences, listed by entry. Tags and fused reporters are not part of them. Residues count along the entry.
UniProt O00303: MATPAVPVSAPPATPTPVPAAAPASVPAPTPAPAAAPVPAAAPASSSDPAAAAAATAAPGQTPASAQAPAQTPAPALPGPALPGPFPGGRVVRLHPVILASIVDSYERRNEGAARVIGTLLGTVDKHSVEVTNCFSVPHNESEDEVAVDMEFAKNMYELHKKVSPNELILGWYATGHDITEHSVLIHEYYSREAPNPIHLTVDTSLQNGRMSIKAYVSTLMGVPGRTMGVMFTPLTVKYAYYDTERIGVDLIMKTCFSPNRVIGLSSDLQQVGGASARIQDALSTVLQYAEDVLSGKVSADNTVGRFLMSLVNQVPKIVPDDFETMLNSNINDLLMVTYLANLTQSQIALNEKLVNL
UniProt Q96P20, residues 1-93: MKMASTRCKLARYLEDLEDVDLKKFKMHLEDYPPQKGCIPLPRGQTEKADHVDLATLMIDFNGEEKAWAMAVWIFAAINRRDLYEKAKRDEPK
UniProt P49023: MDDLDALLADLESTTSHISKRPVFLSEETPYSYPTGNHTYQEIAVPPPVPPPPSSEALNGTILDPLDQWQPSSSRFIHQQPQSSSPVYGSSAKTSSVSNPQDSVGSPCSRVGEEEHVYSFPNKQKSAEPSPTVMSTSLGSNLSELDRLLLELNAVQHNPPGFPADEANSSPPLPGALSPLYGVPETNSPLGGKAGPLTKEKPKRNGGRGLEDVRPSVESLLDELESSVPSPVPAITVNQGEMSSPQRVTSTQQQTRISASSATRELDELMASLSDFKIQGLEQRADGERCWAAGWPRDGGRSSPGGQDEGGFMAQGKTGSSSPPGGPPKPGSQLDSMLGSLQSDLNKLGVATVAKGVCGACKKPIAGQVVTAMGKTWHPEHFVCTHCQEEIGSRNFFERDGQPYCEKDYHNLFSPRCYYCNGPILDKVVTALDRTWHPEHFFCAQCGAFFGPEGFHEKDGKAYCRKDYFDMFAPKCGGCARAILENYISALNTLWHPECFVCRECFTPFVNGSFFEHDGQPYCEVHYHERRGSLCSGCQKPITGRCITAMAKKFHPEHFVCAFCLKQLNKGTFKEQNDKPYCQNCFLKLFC

Key:
Assay in all cases: co-IP; HEK293T cells co-transfected with Flag- and HA-tagged plasmids; lysis in 50 mM Tris-HCl pH 7.5, 300 mM NaCl, 1% Triton-X, 5 mM EDTA, 10% glycerol; IP with anti-Flag antibody and Protein-G Sepharose, immunoblot with anti-HA and anti-Flag; in some panels cells treated with DMSO or ATP (5 mM) for 2 h; Fig. 6d-g shown as pairs of IPs whose antibodies the legend does not name
[1] = target: T1, Flag-USP13 (human) (UniProt Q92995)
T1 sequence: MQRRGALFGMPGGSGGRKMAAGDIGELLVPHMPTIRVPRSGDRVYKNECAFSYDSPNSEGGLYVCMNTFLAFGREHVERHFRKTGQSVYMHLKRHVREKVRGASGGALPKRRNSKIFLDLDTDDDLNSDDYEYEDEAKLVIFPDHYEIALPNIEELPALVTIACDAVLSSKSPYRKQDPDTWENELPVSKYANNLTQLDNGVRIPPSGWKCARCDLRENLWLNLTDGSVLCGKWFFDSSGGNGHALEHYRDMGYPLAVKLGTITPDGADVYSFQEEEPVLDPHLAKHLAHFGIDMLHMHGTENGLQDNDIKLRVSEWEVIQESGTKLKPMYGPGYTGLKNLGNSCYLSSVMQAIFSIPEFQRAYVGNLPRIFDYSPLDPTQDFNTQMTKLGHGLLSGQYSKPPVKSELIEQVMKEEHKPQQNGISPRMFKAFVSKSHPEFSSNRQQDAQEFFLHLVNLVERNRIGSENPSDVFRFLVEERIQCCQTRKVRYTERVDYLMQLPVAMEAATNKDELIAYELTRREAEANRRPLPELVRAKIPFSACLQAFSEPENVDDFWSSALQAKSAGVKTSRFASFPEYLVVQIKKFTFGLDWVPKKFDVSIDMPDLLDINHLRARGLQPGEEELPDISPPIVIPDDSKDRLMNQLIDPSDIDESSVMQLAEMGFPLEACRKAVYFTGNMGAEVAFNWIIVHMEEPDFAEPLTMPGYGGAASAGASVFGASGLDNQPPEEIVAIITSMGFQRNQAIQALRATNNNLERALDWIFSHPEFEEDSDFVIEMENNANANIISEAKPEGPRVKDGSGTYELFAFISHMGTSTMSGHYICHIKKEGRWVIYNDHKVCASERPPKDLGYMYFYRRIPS

[2] = target: Flag-EIF3S5 (human) (UniProt O00303)
[3] = target: T2, Flag-P2X7R(36–595) (UniProt Q99572)
T2 sequence: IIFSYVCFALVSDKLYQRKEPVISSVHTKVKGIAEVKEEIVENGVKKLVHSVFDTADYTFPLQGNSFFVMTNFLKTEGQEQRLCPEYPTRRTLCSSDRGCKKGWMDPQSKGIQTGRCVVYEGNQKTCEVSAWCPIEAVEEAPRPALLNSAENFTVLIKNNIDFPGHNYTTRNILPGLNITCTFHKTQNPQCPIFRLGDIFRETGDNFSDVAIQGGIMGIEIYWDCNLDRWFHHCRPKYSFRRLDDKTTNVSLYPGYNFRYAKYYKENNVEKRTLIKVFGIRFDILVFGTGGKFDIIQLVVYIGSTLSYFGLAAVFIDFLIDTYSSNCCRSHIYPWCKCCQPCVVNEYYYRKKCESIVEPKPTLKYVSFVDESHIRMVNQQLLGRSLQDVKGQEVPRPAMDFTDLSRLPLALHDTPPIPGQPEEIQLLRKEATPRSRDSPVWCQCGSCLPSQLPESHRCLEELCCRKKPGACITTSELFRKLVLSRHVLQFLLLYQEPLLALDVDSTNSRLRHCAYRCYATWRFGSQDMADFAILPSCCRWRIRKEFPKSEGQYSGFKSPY

[4] = target: T3, Flag-P2X7R(33–595) (UniProt Q99572)
T3 sequence: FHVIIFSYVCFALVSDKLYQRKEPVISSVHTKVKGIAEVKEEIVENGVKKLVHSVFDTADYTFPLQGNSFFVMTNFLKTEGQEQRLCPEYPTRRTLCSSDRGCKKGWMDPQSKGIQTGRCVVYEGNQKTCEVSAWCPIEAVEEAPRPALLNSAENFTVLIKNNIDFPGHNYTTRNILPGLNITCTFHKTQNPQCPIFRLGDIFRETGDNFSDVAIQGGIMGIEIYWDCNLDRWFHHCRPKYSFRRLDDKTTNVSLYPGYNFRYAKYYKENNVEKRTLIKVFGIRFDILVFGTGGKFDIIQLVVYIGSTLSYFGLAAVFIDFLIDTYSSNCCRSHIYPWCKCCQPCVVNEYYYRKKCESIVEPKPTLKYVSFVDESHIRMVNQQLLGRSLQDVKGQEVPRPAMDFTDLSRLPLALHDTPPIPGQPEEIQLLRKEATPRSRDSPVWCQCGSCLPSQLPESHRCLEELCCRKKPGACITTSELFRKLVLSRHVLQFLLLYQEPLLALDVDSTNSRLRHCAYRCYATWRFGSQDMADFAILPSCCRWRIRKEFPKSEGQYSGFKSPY

[5] = target: Flag-PYRIN (human) (UniProt Q96P20)

Substance: HA-Paxillin (from UniProt P49023 1-591)
- binding [1]: binds
- binding [2]: binds
- binding [3]: no binding
- binding [4]: no binding
- binding [5]: no binding
